Results on 22 compounds are retold here after publication PMC12040169 (PLOS Biology, 2025).

The list shows a part of the results.

In the assay the test system is T1, C. trachomatis L2/434/Bu expressing GFP (CTL2-GFP).
T1 construct: L2/434/Bu GFP intracellular growth in HeLa cells
Also noted: species or system HeLa; C. trachomatis total inclusion area by high-content imaging, normalised to DMSO. The note with it: total inclusion area; 28.5 h, 10 µM; inhibitor. The method in brief: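 High-content images of fixed, Hoechst-stained infected cultures supply inclusion area and count (growth) plus nuclei number (viability), complementing bulk GFP/resorufin fluorescence. MIC determination is unchanged from the primary assay.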
On to `CNC(=O)c1ccc(-c2ccc(CNC(=O)CCc3cccc(Cl)c3)cc2)nc1C` [CBK286015], for which the “% of control remaining” value came out at 92.2064.
In the case of `O=C(Nn1cnnc1)c1ccccc1CCc1ccccc1` [CBK268578], the “% of control remaining” value is 95.323.
For `COCCN(Cc1cnn(C)c1)C(=O)Cc1ccccn1` [CBK306576] the value was 52.0958; for `Cc1cccc(C(=O)N2CCN(Cc3nc4ccccc4[nH]3)CC2)c1` [CBK304399], 104.496.
In the case of `COC(=O)Cn1c(=N)n(CCN2CCOCC2)c2ccccc21` [CBK262447B], the “% of control remaining” value was 108.958.
As to `Cc1cc(C(=O)Nc2cc(-c3nc4ncccc4o3)ccc2Cl)ccc1[N+](=O)[O-]` [CBK268700], the “% of control remaining” value came to 92.2308.
In the case of `O=C1CCC(=O)N1CCn1c(=O)n(S(=O)(=O)c2cccc(Cl)c2)c2ccccc21` [CBK106493] it was 93.5548; in that of `Cc1nn2cc(CNC(=O)CN3CCOc4ccccc4C3)nc2s1` [CBK306921], 82.0395; in that of `O=C(O)c1ccc(CNCCc2ccccc2)cc1` [CBK287215], 94.3232.
Take `CN(Cc1cnc(-c2ccncc2)cn1)C1CCN(C(=O)OC(C)(C)C)CC1` [CBK172979]: the “% of control remaining” value is listed as 62.1485.
In the case of `Cc1c(C(=O)N2CCN(C3CCN(C)CC3)CC2)nnn1-c1cccc(C(F)(F)F)c1` [CBK149088] it was 100.073.
For `O=C(Cc1ccccc1)Nc1ccc(NC(=O)c2ccc(-c3ccccc3)cc2)cc1` [CBK268821] the value was 102.807; for `O=c1[nH]c2ncc(-c3ccsc3)nc2n1-c1ccc2[nH]ccc2c1` [CBK064650], 94.0131; for `Clc1ccc2c(c1)CCC(NCC1COc3ccccc3O1)C2` (stereo not shown) [CBK013077C], 70.0616.
On to `Cc1ccc(-c2nnc3c4ccccc4c(C)nn23)cc1S(=O)(=O)NC(C)c1ccccc1` (stereo not shown) [CBK266715], for which the “% of control remaining” value is listed as 116.469.
Regarding `O=C1NCCCC12CCN(Cc1ccccc1N1CCCCC1)CC2` [CBK284878], the “% of control remaining” value was found to be 99.6943.
For `CC(NC(=O)c1cc(C(F)(F)F)n(C)n1)c1cccnc1` (stereo not shown) [CBK282203] the value was 96.9507.
Take `CC(C)n1c(=O)n(C(=O)c2ccco2)c2cccnc21` [CBK283856]: the “% of control remaining” value worked out at 95.5591.
For the compound `O=C(NCCc1cccs1)Nc1ccccc1` [CBK269917], the “% of control remaining” value was 92.4906.
Regarding `Cc1cc(C(=O)NC(C)c2ccccn2)c2ccccc2n1` (stereo not shown) [CBK281826], the “% of control remaining” value stood at 69.9229.
For `O=C(N1CCC(Oc2nccnc2OCc2ccc(Cl)cc2F)CC1)C(F)(F)F` [CBK164142] the value was 68.2849.
With `COc1cccc(COc2nccnc2-c2ccc(C)cc2C)c1OC` [CBK106995], the “% of control remaining” value came to 78.8784.
